This passage reports cytotoxicity call and growth inhibition call results from the antibiotic and cytotoxicity screens of Wong et al. (2023).

One assay concerns HSkMC. The experiment in a line: cytotoxicity call (relative viability < 0.9). Conditions: 10 µM.
For the next assay, the system named is HepG2. The experiment in a line: cytotoxicity call (relative viability < 0.9). As to conditions: 10 µM.
The test system of a further assay is S. aureus RN4220. The experiment in a line: growth inhibition call (relative growth <= 0.2). As to conditions: 50 µM.

The list shows a part of the results.

Regarding `CSc1cc(-c2ccc(Cl)cc2)nc(-c2cccs2)c1`, the cytotoxicity call in the assay on HSkMC and in the assay on HepG2 was “inactive” in each case. In addition, the growth inhibition call in the assay with S. aureus RN4220 is “inactive”.

For the compound `C[C@H]1CCCCO[C@@H](CN(C)S(=O)(=O)c2ccc(F)cc2)[C@@H](C)CN([C@@H](C)CO)C(=O)c2cc(NS(=O)(=O)c3cn(C)cn3)ccc2O1`, the cytotoxicity call with HSkMC and with HepG2 was “inactive” throughout. Further, the growth inhibition call with S. aureus RN4220 was “inactive”.

`COc1ccc(CCNC(=O)[C@@]2(Cc3ccccc3I)c3ccccc3C(=O)N(C3CCCCC3)[C@H]2c2ccc(CO)cc2)cc1`: the cytotoxicity call in the assay on HSkMC and in the assay with HepG2 was “inactive” each time. In the assay with S. aureus RN4220, the growth inhibition call was “inactive”.

`C[C@H](CO)N1C[C@H](C)[C@@H](CN(C)S(=O)(=O)c2ccc(Cl)cc2)OCc2cnnn2CCCC1=O`: the cytotoxicity call in the assay with HSkMC and with HepG2 was “inactive” throughout. Besides, the growth inhibition call with S. aureus RN4220 is “inactive”.

On to `C[C@H]1CN([C@@H](C)CO)C(=O)CCCn2cc(nn2)CO[C@H]1CN(C)C(=O)Nc1ccc(C(F)(F)F)cc1`, for which the cytotoxicity call in the assay on HSkMC and in the assay with HepG2 was “inactive” in each case. Further, the growth inhibition call in the assay with S. aureus RN4220 was “inactive”.

As for `C[C@@H]1CN([C@H](C)CO)C(=O)c2cc(N(C)C)ccc2O[C@@H](C)CCCCO[C@@H]1CN(C)Cc1ccc(C(=O)Nc2ccccc2N)cc1`, the cytotoxicity call in the assay with HSkMC and with HepG2 was “inactive” in each case. Also, the growth inhibition call in the assay on S. aureus RN4220 is “inactive”.

With `C[C@@H]1CN([C@@H](C)CO)C(=O)c2cc(C#Cc3ccncc3)cnc2O[C@H]1CN(C)S(=O)(=O)c1ccccc1F`, the cytotoxicity call with HSkMC was “inactive”. In the assay with HepG2, the cytotoxicity call was “active”. In addition, the growth inhibition call in the assay on S. aureus RN4220 was “inactive”.

With `COc1ccc(NC(=O)Nc2ccc3c(c2)C(=O)N([C@@H](C)CO)C[C@H](C)[C@@H](CN(C)C(=O)C2CCCCC2)OCCCC[C@H](C)O3)cc1`, the cytotoxicity call in the assay with HSkMC and in the assay with HepG2 was “inactive” in each case. Also, in the assay on S. aureus RN4220, the growth inhibition call was “inactive”.

Turning to `Cc1cc(C(=O)Nc2cccc3c2O[C@@H](CN(C)Cc2ccc(C(=O)O)cc2)[C@H](C)CN([C@@H](C)CO)C3=O)n(C)n1`, the cytotoxicity call with HSkMC and in the assay with HepG2 was “inactive” each time. Also, the growth inhibition call in the assay with S. aureus RN4220 is “inactive”.

Consider `C[C@H]1CN([C@@H](C)CO)C(=O)c2cccc(NC(=O)Nc3ccccc3)c2O[C@@H]1CN(C)Cc1ccc(Cl)c(Cl)c1`, for which the cytotoxicity call in the assay on HSkMC was “active”. Besides, the cytotoxicity call with HepG2 was “inactive”. In addition, the growth inhibition call with S. aureus RN4220 was “inactive”.

Take `C[C@@H]1CN([C@@H](C)CO)C(=O)c2cc(NC(=O)NC3CCCCC3)ccc2O[C@@H]1CN(C)Cc1ccc(Cl)c(Cl)c1`: the cytotoxicity call with HSkMC and in the assay on HepG2 was “inactive” in each case. Moreover, the growth inhibition call in the assay with S. aureus RN4220 was “inactive”.

For the compound `CCSC(=S)N[C@H]1CCS(=O)(=O)C1`, the cytotoxicity call in the assay on HSkMC and with HepG2 was “inactive” each time. In addition, the growth inhibition call in the assay on S. aureus RN4220 was “inactive”.

Take `C[C@@H]1CN([C@@H](C)CO)C(=O)c2cc(NC(=O)NC3CCCCC3)ccc2O[C@H]1CN(C)S(=O)(=O)c1cn(C)cn1`: the cytotoxicity call in the assay on HSkMC and in the assay on HepG2 was “inactive” throughout. For the same compound, the growth inhibition call in the assay on S. aureus RN4220 is “inactive”.

For the compound `C[C@H]1CN([C@@H](C)CO)C(=O)c2cccc(NC(=O)c3ccc(-c4nccs4)cc3)c2O[C@H]1CN(C)Cc1ccc(C(=O)Nc2ccccc2N)cc1`, the cytotoxicity call with HSkMC and in the assay with HepG2 was “inactive” throughout. Further, in the assay with S. aureus RN4220, the growth inhibition call is “inactive”.

In the case of `COc1ccc(S(=O)(=O)N(C)C[C@H]2OCCCC[C@H](C)Oc3ccc(NS(=O)(=O)c4cn(C)cn4)cc3C(=O)N([C@H](C)CO)C[C@H]2C)cc1`, the cytotoxicity call in the assay with HSkMC and in the assay on HepG2 was “inactive” in each case. Further, the growth inhibition call in the assay with S. aureus RN4220 is “inactive”.

In the case of `C[C@@H]1CN([C@@H](C)CO)C(=O)c2cc(NC(=O)C3CCCCC3)ccc2O[C@@H](C)CCCCO[C@H]1CN(C)Cc1ccc(C(=O)O)cc1`, the cytotoxicity call in the assay on HSkMC and in the assay on HepG2 was “inactive” each time. Moreover, the growth inhibition call with S. aureus RN4220 is “inactive”.

As to `Cc1ccc(Oc2ccc(CN)cc2)cc1`, in the assay with HSkMC, the cytotoxicity call is “inactive”. In the assay on HepG2, the cytotoxicity call is “active”. For the same compound, in the assay on S. aureus RN4220, the growth inhibition call is “inactive”.

`C[C@H]1CCCCO[C@H](CN(C)C(=O)Cc2ccccc2)[C@@H](C)CN([C@@H](C)CO)C(=O)c2cc(NC(=O)Nc3ccccc3)ccc2O1`: the cytotoxicity call in the assay on HSkMC and in the assay on HepG2 was “inactive” in each case. Further, the growth inhibition call with S. aureus RN4220 was “inactive”.

Turning to `CN(Cn1[nH]c(=O)ccc1=O)c1ccccc1`, the cytotoxicity call in the assay on HSkMC and with HepG2 was “inactive” in each case. Also, the growth inhibition call with S. aureus RN4220 is “inactive”.

Turning to `C[C@@H]1CCCCO[C@H](CN(C)S(=O)(=O)c2ccc(F)cc2)[C@@H](C)CN([C@@H](C)CO)C(=O)c2cc(NC(=O)CCC(F)(F)F)ccc2O1`, the cytotoxicity call in the assay on HSkMC and in the assay with HepG2 was “inactive” each time. In addition, the growth inhibition call in the assay on S. aureus RN4220 is “inactive”.

In the case of `C[C@@H]1CN([C@H](C)CO)C(=O)c2c(c3ccccc3n2C)-c2ccccc2CO[C@H]1CN(C)Cc1cccc(C(=O)O)c1`, the cytotoxicity call with HSkMC and in the assay on HepG2 was “inactive” each time. Moreover, the growth inhibition call in the assay on S. aureus RN4220 was “inactive”.

With `COc1ccccc1CNC(=O)C[C@@H]1C[C@@H]2c3cc(NS(=O)(=O)c4ccc(F)cc4)ccc3O[C@@H]2[C@@H](CO)O1`, the cytotoxicity call with HSkMC and in the assay with HepG2 was “inactive” throughout. Besides, in the assay with S. aureus RN4220, the growth inhibition call is “inactive”.

Turning to `O=C1CCC(=O)N1Cc1cccc(CN2C(=O)[C@]3(CC(=O)N(Cc4ccccc4)C3=O)c3ccccc32)c1`, the cytotoxicity call in the assay with HSkMC and with HepG2 was “inactive” each time. The growth inhibition call in the assay with S. aureus RN4220 was “inactive”.

As for `C[C@H]1CN([C@@H](C)CO)C(=O)c2cc(NC(=O)CCCN(C)C)ccc2O[C@H]1CN(C)C(=O)Nc1ccc(F)cc1`, the cytotoxicity call with HSkMC and in the assay with HepG2 was “inactive” each time. For the same compound, the growth inhibition call in the assay on S. aureus RN4220 is “inactive”.

On to `C[C@H]1CN([C@@H](C)CO)C(=O)Cc2cc(NC(=O)Cn3cnnn3)ccc2O[C@@H]1CN(C)Cc1ccc(-c2ccccc2)cc1`, for which the cytotoxicity call with HSkMC and in the assay on HepG2 was “inactive” each time. In the assay on S. aureus RN4220, the growth inhibition call was “inactive”.

Regarding `C[C@@H]1CN([C@H](C)CO)S(=O)(=O)c2ccc(-c3ccncc3)cc2O[C@H]1CN(C)C(=O)c1cccc(F)c1`, the cytotoxicity call in the assay with HSkMC and with HepG2 was “inactive” in each case. For the same compound, the growth inhibition call in the assay with S. aureus RN4220 was “inactive”.

Take `COc1ccc2c3c([nH]c2c1)[C@H](CO)N(CC1CCCCC1)C[C@]13CCN(CC1)C(=O)NC1CCCC1`: the cytotoxicity call in the assay with HSkMC is “active”. Besides, in the assay with HepG2, the cytotoxicity call was “inactive”. Besides, the growth inhibition call with S. aureus RN4220 is “inactive”.

As for `C[C@H](CO)N1C[C@H](C)[C@H](CN(C)S(=O)(=O)c2cn(C)cn2)OCCCC[C@H](C)Oc2ccc(NS(=O)(=O)c3ccccc3)cc2C1=O`, the cytotoxicity call in the assay on HSkMC (human skeletal muscle cells) and in the assay with HepG2 was “inactive” throughout. Moreover, in the assay with S. aureus RN4220, the growth inhibition call is “inactive”.
